First the molecules themselves.
B1: CPEB3 Ribozyme (parent)
chain: UAACAGGGGGCCACAGCAGAAGCGUUCACGUCGCAGCCCCUGUCAGAUUCUGGUGAAUCUGCGAAUUCUGCUGUAUAUCUC

Read counts are not given, so values of variants with three or more changes are uncertain.

In the data set the parent is B1. Put plainly: self-cleavage, relative activity (ratio to wild type); higher = more cleavage; in vitro, sequencing. The gist of the method: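 After error-prone PCR and barcoding, CPEB3 ribozyme mutant libraries were transcribed with T7 RNA polymerase at 37°C for 5 hours, then given 15 min with DNase I before an EDTA stop, and they cleaved during both steps. Reverse transcription with template switching preceded Illumina sequencing. Relative activity divides a variant's cleaved/total read fraction by the unmutated ribozyme's. At least 5 reads were required per variant, and three batches were averaged.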
On to UAACAGGGGGCCACAGCAGAAGCGUUCACGACGUAGCCCCAGUCAGAUUCAGGUGAAUCUGCGAAUUCUGCUGUAUAUCUC, for which the self-cleavage turned out to be 0.33. For the variant UAACAGGGGGCCACAGCAGAAGCGUUCACGACGCAGCUCCUGUCAGAUUCUGGUGAACCUGCGAAUUCCGCUGUAUAUCUC, the self-cleavage worked out at 0.07. As for UAACAGGGGGCCACAGCAGAAGCGUUCACUUCGCAGCCCCUGUCAGACUCUGAUGAAUCUGCGUAUUCUGCUGUAUAUCUC, the figure is 0.21; as for UAACAGGGGGCCACAGCAGAAGCGUUCACAUCGCAGCCCCUGUCAGAUUCUGGUAAAUCCGCGAAUUCUGCUGUAUAUCUC, 0.11. Under UAACAGGGGGCCACAGCAGAAGCGUUCACAUCGCAGCCCCAGUCGGAUUCUGGUGAAUCUGCGAAUUCUGCUGUAUAACUC stands 0.04. Under UAACAGGGGGCCACAGCAGAAGCGUUCACGACACAGCCCCUGUCAGAUUCUGGUGGAUCUGCGAAUUCUGCUGUAUAUCUC stands 0.08. In the case of UAACAGGGGGCCACAGCAGAAGCGUUCACAUCGCAGCCCCUGUCAGAUUCUGGCGAAUCUGCGGAAUCAGCUGUAUACCUC, the self-cleavage was determined as 0.07. As for UAACAGGGGGCCACAGCAGAAGCGUUCACGACGCAGCCCCUGUCAGAUUCUGCUGAAUCUGCGAAUUCCGCUGUAUAUCUC, the figure is 0.22. Under UAACAGGGGGCCACAGCAGAAGCGUUCACAUCGCAGCCCCUGUCAGAUUCUGGUGAAUCUGCGAAUUCCGCUGAAUAUCUC stands 0.15. For UAACAGGGGGCCACAGCAGAAGCGUUCACUUCGCAGCCCCUGUCAGAUUCUCGUGAAUCUGCGAAUUCUGCGGUAUAUCUC, the self-cleavage was 0.05. As for UAACAGGGGGCCACAGCAGAAGCGUUCACAUCGCAGCCCCUGUCAGACUCUGGUAAAUCUGCGAAUCCUGCUGUAUAUCUC, the figure is 0.04; as for UAACAGGGGGCCACAGCAGAAGCGUUCACACCGCAGCCCCUGUCAGAUUCUGGUGAAUCUGCGAAUUCUGCAGUAUAUCUC, 0.18; as for UAACAGGGGGCCACAGCAGAAGCGUUCACAUCGCAGCCCCUGUCAGAUUCUGGUGAAUCUGCGAACUCCGCUGUUUAUCUC, 0.09. In the case of UAACAGGGGGCCACAGCAGAAGCGUUCACUUCGCAGCCCCUGUCAGAUUCUGGUGAAUCUGCGAAUACUGCUGUAUACCUC, the self-cleavage came to 0.06. Turning to UAACAGGGGGCCACAGCAGAAGCGUUCACUGCGCAGCCCCUGCCAGAUUCUGGUGAAUCUGCGAAUUCUGCUGUAUAUCUC, the self-cleavage came to 0.12. As for UAACAGGGGGCCACAGCAGAAGCGUUCACGACACAGCCCCUGACAGAUUCUGGUGAAUCUGCGAAUUCUGCUGUAUAUCUC, the figure is 0.15; as for UAACAGGGGGCCACAGCAGAAGCGUUCACUUCGCAGCCCCGGUCAGAUUCUGGUGAAUCUGCGAAUUCUGCUGUAAAUCUC, 0.11. Under UAACAGGGGGCCACAGCAGAAGCGUUCACCCCGCAGCCCCUGUCUGAUUCUGGUGAAUCUGCGAAUUCAGCUGUAAAUCUC stands 0.23. As for UAACAGGGGGCCACAGCAGAAGCGUUCACAUCGCAGCCCCUGUCAGAUCCUGGUGAAUCUGCGAAUUCUGCCGUAUAUCUC, the figure is 0.17; as for UAACAGGGGGCCACAGCAGAAGCGUUCACGACGCGGCCCCUGUCUGAUUCUGGUGAAUCUGCGAAUUCUGCUGUAUACCUC, 0.92; as for UAACAGGGGGCCACAGCAGAAGCGUUCACGACGCGGCCCCGGUCGGAUUCUGGUGAACCUGCGAAUUCUGCUGUAUAUCUC, 0.08. As to UAACAGGGGGCCACAGCAGAAGCGUUCACAUCGCAGCCUCUGUCAGAUUCUGGUGAAUCUGCGUAUUCUGCUGUAUAUCUC, the self-cleavage was 0.1.

With UAACAGGGGGCCACAGCAGAAGCGUUCACUUCGCAGCCCCUGGCAGAUUCUGGUGAACCUGCGAAUUCUGCUGUAUUUCCC, the self-cleavage was 0.08. As for UAACAGGGGGCCACAGCAGAAGCGUUCACCUCGCAGCCCCCGACAGAUUCUGGUGGAUCUGCGGAUUCUGCUGUAUAUCUC, the figure is 0.22; as for UAACAGGGGGCCACAGCAGAAGCGUUCACUUCGCAGCCCCUGUCGGACUCUGGAGAAUCUGCGAAUUCUGCUGUAUAUCUC, 0.06; as for UAACAGGGGGCCACAGCAGAAGCGUUCACUUCGCAGCCCCUGUCUGAUUCUGGUGUAUCUGCGAAUUCUGCUGUAUAUCUC, 0.09. Under UAACAGGGGGCCACAGCAGAAGCGUUCACAUCGCAGCCCCUGUCAGAUUCUGGAGAAUCUGCGAAUCCUGCUGUAUAUCUC stands 0.09; under UAACAGGGGGCCACAGCAGAAGCGUUCACGACUCAGCCCCUGUCAGAUUCUGGUGAAUCCGCGAAUCCUGCUGUAUAUCAC, 0.06. As for UAACAGGGGGCCACAGCAGAAGCGUUCACGACGCGGCCCCUGUCAGAUUCUGGCGAACCAGCGAAUUCUGCUGUAUAUCUC, the figure is 0.2; as for UAACAGGGGGCCACAGCAGAAGCGUUCACUUCGCUGCUCCUGUCAGAUUCAGGUGAACCUGCGAAUUCCGCUGUAUAUCAC, 0.05; as for UAACAGGGGGCCACAGCAGAAGCGUUCACCUCGCAGCCCCUGUCAGAUUCUCGUGAAUCUGCGAGUUCUGCUGUACAUCUC, 0.13. As for UAACAGGGGGCCACAGCAGAAGCGUUCACGACGCAGCCCCUGUCAGAUUCUGGUGAGUCUGCGUAUUCUGCUGUAUAUCUC, the self-cleavage is 0.1. As to UAACAGGGGGCCACAGCAGAAGCGUUCACGACGCAGCCCCUGUCAGAUUCUGGUGGAUCUGCGAAUUCUGCAGUAUAACUC, the self-cleavage came to 0.4. In the case of UAACAGGGGGCCACAGCAGAAGCGUUCACAUCACAGCCCCUGUCAGAUUCUGGUGAAUCUGCGGAUUCCGCUGUAUAUCUC, the self-cleavage turned out to be 0.13.

(Values after the RNAGym collection of RNA variant scans (doi:10.1093/nar/gkz1192).)
